Measurements published in article PMC4336329 (PLoS ONE, 2015).
About 14,000 (4.5%) of roughly 310,000 compounds showed an effect of 50% or more. The effect is printed as a negative number. The list shows a part of the results.

Target: human ether-à-go-go-related gene (hERG) potassium channel (human, UniProt Q12809)
Assay: primary screen, population patch clamp on CHO cells stably expressing hERG
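Note: peak tail current of the secondary pulse compared with the same well before compound.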

human ether-à-go-go-related gene (hERG) potassium channel, sequence (Q12809 whole entry, looked up): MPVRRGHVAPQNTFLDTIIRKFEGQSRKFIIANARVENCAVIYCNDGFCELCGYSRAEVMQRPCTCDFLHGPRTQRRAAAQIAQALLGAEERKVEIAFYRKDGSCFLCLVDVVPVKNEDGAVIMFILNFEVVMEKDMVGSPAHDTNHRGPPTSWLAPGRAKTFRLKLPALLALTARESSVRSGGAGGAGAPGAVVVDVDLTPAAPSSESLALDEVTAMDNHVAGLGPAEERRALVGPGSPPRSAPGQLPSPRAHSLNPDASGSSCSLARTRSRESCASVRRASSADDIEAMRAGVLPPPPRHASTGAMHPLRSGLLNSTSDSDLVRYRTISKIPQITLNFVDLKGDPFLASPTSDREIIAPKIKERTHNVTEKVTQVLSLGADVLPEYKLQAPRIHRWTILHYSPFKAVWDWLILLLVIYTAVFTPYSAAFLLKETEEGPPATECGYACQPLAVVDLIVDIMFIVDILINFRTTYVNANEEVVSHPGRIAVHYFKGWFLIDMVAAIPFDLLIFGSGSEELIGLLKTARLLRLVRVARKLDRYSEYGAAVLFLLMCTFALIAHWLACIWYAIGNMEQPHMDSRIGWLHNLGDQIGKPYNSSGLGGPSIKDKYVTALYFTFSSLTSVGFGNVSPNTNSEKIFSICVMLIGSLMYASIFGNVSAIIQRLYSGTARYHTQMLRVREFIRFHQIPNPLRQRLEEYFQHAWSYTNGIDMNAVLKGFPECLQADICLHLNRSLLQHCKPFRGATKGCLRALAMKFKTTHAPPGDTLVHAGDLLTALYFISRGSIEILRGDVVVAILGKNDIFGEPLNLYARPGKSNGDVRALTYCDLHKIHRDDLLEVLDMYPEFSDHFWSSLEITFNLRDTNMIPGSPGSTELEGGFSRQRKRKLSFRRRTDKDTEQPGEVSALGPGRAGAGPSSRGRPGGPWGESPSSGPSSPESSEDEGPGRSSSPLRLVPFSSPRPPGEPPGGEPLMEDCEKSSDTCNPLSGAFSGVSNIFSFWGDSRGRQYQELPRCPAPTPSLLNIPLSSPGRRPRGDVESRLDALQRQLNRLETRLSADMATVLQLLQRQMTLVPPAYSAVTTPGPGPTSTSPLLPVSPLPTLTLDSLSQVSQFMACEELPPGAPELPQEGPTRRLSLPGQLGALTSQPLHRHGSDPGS

Row | SMILES | hERG current change (%, negative = inhibition) at 10uM
1 | O=C(COC(=O)c1cccc(O)c1)Nc1nnc(-c2ccccc2)o1 | 32.8%
2 | CC(=O)N1CCN(CCN(CC2C(C)C=C(C)CC2C)C(C)=O)CC1 (centres unmarked) | -9.36%
3 | CC(=O)NC1=NN(C(C)=O)C(C)(c2ccccn2)S1 (centres unmarked) | 40.7%
4 | CC(C)(C)c1cc(C(=O)N/N=C/c2ccc(-c3ccccc3[N+](=O)[O-])o2)n[nH]1 | -18.5%
5 | COc1ccc(S(=O)(=O)N2CCOC2CNC(=O)C(=O)NCc2ccc(F)cc2)cc1 (centres unmarked) | -0.994%
6 | Cn1cccc1/C=C1\SC(=S)N(NC(=O)c2ccccc2)C1=O | 7.44%
7 | Cc1sc2ncn(CC(=O)NCC(=O)N3CCC4(CC3)OCCO4)c(=O)c2c1C | -4.54%
8 | CC1CCCC(NS(=O)(=O)c2cc3c(cc2Cl)NC(=O)CO3)C1C (centres unmarked) | -10.5%
9 | O=C(Oc1ccc2c3c(c(=O)oc2c1)CCCC3)c1ccco1 | -3.63%
10 | C/C(=N\NC(=O)C1CC1)c1ccc(C(C)(C)C)cc1 | 9.56%
11 | Cc1ccnc(NS(=O)(=O)c2ccc(NC(=O)c3cc(=O)c4ccccc4o3)cc2)n1 | 25.5%
12 | Cc1cc(C)cc(-n2ncc3c2CCCC3NC(=O)C2CCC2)c1 (centres unmarked) | -76%
13 | COc1cc(/C=C2/CCc3ccccc3C2=O)cc(OC)c1OC | -16.1%
14 | O=C(NCc1cccnc1)C(=O)NCC(c1ccco1)N1CCN(c2ccc(F)cc2)CC1 (centres unmarked) | -22.6%
15 | Cc1ccc2oc(=O)cc(CN3CCC(C)CC3)c2c1 | 10.8%
16 | CC(C)Oc1ccc(C(CC(=O)N2CCOCC2)C(C)C)cc1 (centres unmarked) | 5.26%
17 | C[C@H](NC(=O)c1nc[nH]c1C(=O)N1CC[NH2+]CC1)C(=O)OC(C)(C)C.[Cl-] | 5.51%
18 | Cc1ccc(NC(=O)CN2CCC(C(=O)c3ccc(F)cc3)CC2)cc1 | -72.5%
19 | CC1CCN(S(=O)(=O)c2ccc(S(=O)(=O)NCc3cccnc3)cc2)CC1 | 20.9%
20 | C/C(=N\NC(=O)c1ccccc1)c1c(C)[nH]n(-c2ccccc2)c1=O | 21.9%
21 | Nc1nc(-c2ccc(Cl)cc2Cl)cn1N | -21.8%
22 | Cc1nnc(NC(=O)c2ccco2)s1 | 3.43%

Row | SMILES | hERG current change (%, negative = inhibition) at 10uM
23 | O=C(CCCN1C(=O)/C(=C/c2cccs2)SC1=S)Nc1cccc(O)c1 | 19.8%
24 | O=C(NCc1ccco1)c1cnn2c(C(F)(F)F)cc(-c3cccs3)nc12 | -4.04%
25 | CCN(CC)C(=O)CCCc1c[nH]c2ccccc12 | 20%
26 | COC(=O)CSc1nc(N)nc(C)c1Cl | -13.6%
27 | CO[C@@H]1O[C@@H]2COC(c3ccccc3)O[C@@H]2[C@@H](OC)[C@@H]1O (some centres unmarked) | 20.5%
28 | O=C1C=CN(Cc2ccccc2)CC1 | 0.863%
29 | O=C(O)C1=NOC(CNC(=O)c2ccccc2Cl)C1 (centres unmarked) | 27.2%
30 | Cc1ccc(CC(=O)Nc2cc(C)ccn2)cc1 | 11.2%
31 | CCc1ccc(NC(=O)c2ccnc(C(C)(C)C)c2)cc1 | -4.42%
32 | Fc1ccc(Br)cc1/C=N/N1CCN(c2ccccc2)CC1 | 8.46%
33 | O=C(Cn1cnc2c(oc3ccccc32)c1=O)N1CCCc2ccccc21 | -15.4%
34 | CCOc1ccccc1NC1=NC2CS(=O)(=O)CC2S1 (centres unmarked) | 21.1%
35 | Cc1noc(/C=C/c2ccco2)c1S(=O)(=O)N1CCC(C(=O)N2c3ccccc3CC2C)CC1 (centres unmarked) | -8.16%
36 | Cc1cc(=O)oc2cc(OCC(=O)N/N=C/c3ccccc3[N+](=O)[O-])ccc12 | -33%
37 | Cc1ccc(CNC(=O)CC(C)S(=O)(=O)c2ccc3c(c2)NC(=O)CO3)cc1 (centres unmarked) | -22.1%
38 | CS(=O)(=O)N(CC(=O)NCCSCc1cccc(Cl)c1)c1ccccc1F | -20.2%
39 | COc1ccc(Cl)cc1-n1c(=S)sc2c(=O)n(-c3ccc(F)cc3)c(SCC(=O)O)nc21 | -42.9%
40 | COc1ccc2nc(Nc3nc(CSc4nc5ccccc5s4)cc(=O)[nH]3)nc(C)c2c1 | -10.4%
41 | O=C(CN1C(=O)COc2ccccc21)N1CCOCC1 | 7.41%
42 | CN1/C(=C\C(=O)COC(=O)c2ccccc2O)C(C)(C)c2ccccc21 | -3.1%
43 | COc1ccc(/C=N/Nc2nccnc2Cl)cc1 | -12.6%
44 | CS(=O)(=O)Nc1cccc(C2=NN(C(=O)c3ccco3)C(c3ccco3)C2)c1 (centres unmarked) | -2.88%
